# From ChEMBL document CHEMBL4888484, “Replenishing the malaria drug discovery pipeline: Screening and hit evaluation of the MMV Hit Generation Library 1 (HGL1) against asexual blood stage Plasmodium falciparum ,using a nano luciferase reporter read-out” (2022)
# Hit rate of the full screen: of about 150,000 compounds, about 540 (0.36%) showed an effect of 50% or more. Some of the results follow.
# Test system: Plasmodium falciparum
# Assay: Primary screen in NF54 nanoGlo assay, in single point, at 2uM, 72h; a lower Z score goes with more inhibition
# Assay type: functional, Erythrocyte
# Conditions: timepoint 72 hour
SMILES,% Inhibition,Z score
Nc1ncncc1C(=O)N(CC1CC1)C1CCCCC1,-10%,1.49
Cc1nc(CN2CCC3(CC2)CCN(C(=O)C2CCCC2)C[C@@H]3CO)c[nH]1,-2%,0.49
Cc1ncccc1Cc1noc([C@H]2CCCc3[nH]nnc32)n1,2%,-0.37
COC(=O)c1[nH]c(C)c(CN(C(=O)C2CCCCC2)C2CCCC2)c1C,-14%,1.65
CCOC(=O)C(C)(C)c1csc(C2CN3CCCC3CO2)n1 (stereo unspecified),2%,-0.23
CCCN(CCC)Cc1ccc(CNc2nc(-c3ccc(OC)cc3)no2)o1,-6%,0.9
CC(C)(C)c1nc(Cn2cccc(C(F)(F)F)c2=O)no1,-11%,1
CNC(=O)Cn1c(-n2nc(C)cc2C)nc2c(c1=O)CCCC2,-9%,1.07
C[C@H](NCc1c[nH]c2nccnc12)c1ccc(Br)cc1F,-3%,0.45
COCc1ccc(C2CCCN2C2CCc3ccccc3NC2=O)o1 (stereo unspecified),-6%,0.95
CCc1cc(NC(=O)Cc2ccc(OC)cc2)nn1-c1ccc(OC)cc1,-2%,0.3
COc1cc(OC)cc(C(=O)N2CCC[C@@]3(CCN(Cc4cccnc4)C3)C2)c1,-9%,1.86
O=C1C[C@H](NC(=O)CN2CCCC2=O)c2ccccc2N1,-17%,2.24
COCC(C)(C)NC(=O)c1cc(Br)c(C)nc1O,-6%,0.85
Cc1ccc(N(CC(=O)NC2CCN(C)CC2)S(=O)(=O)c2ccccc2)cc1,0%,0.02
CN(C1CCC(=O)N(Cc2ccccc2Cl)CC1)C1CCOC1 (stereo unspecified),-6%,0.77
OC1=Nc2nc(N3CCOCC3)sc2[C@@H](c2ccccc2)C1,27%,-3.03
O=C(CCOc1ccccc1)Nc1ccnn1C1CCCC1,-5%,0.91
O=C(c1nc2cnccc2s1)N1CCN(c2cnccn2)CC1,5%,-0.66
O=S(=O)(C[C@H]1CCCC1(F)F)NCc1cccs1,-11%,1.62
Cc1ccc(C(=O)N[C@H]2CCCCNC2=O)o1,14%,-1.85

SMILES,% Inhibition,Z score
COC(=O)[C@H](CC(C)C)NC(=O)N1CCN(C(=O)N[C@@H](CC(C)C)C(=O)OC)CC1,-2%,0.28
O=C1C2CCCCC2C(=O)N1c1nccs1 (stereo unspecified),-16%,2
COc1ccc(C)cc1NC(=O)CNC(=O)COc1ccc(-c2ccc(Br)cc2)cc1,-9%,0.9
COCCNCCOc1ccc(C)cc1-c1cccc2c1OCC2,8%,-0.98
C=CCC1(CC=C)CCCCN1C(=O)COCC(F)(F)C(F)F,5%,-0.83
CC(C)(C)[C@H](NCc1noc(C2CC2)n1)c1cccs1,-2%,0.29
CCn1ccnc1[C@H]1OCC[C@@H]1NS(=O)(=O)c1ccc(N(C)C)nc1,-5%,0.91
CCCC[C@H]1CN(c2ccc(Cl)cc2)C(=O)CN1C(=O)c1cc(C)no1,-7%,0.89
Cc1nnsc1CN(C)C[C@H](C)N1CCCC1,-16%,1.54
CC1CCC(C)N1c1cccc2c1NCCC2 (stereo unspecified),-6%,0.86
Cc1cc(Cl)ccc1OCC(=O)N1CC[C@@H]2OCc3cnnn3[C@@H]2C1,-15%,2.84
COCC(=O)N[C@@H]1CN(C(=O)c2nc(C(C)C)oc2C)C[C@H]1c1ccnn1C,-4%,0.7
O[C@H]1CCCN(Cc2cc(Cl)ccc2OCc2cccnc2)C1,-2%,0.29
C=CCN1CCN(C(=O)C(CC)Oc2ccc3c(c2)C(c2ccc(F)cc2)N(C(=O)C2CCCC2)CC3)CC1 (stereo unspecified),3%,-0.61
COC(=O)C1C(c2ccccc2)NC(c2ccccc2)C(C(=O)OC)S1(=O)=O (stereo unspecified),2%,-0.19
CN1CCC(NCC[C@@H](Cc2ccccc2Cl)c2ccc(Cl)cc2)CC1,72%,-14.93
O=S(=O)(Nc1noc(C2CC2)n1)c1ccc(CC(F)(F)F)cc1,-12%,1.22
CC(N[C@@H]1Cc2ccccc2[C@H]1N)c1ccccn1 (stereo partly specified),5%,-1.05
CC(=Cc1nnc(-c2ccc(-n3cnnn3)cc2)o1)C(C)(C)C,2%,-0.3
CN(C)C(=O)[C@@H]1CN(C(=O)NCc2c[nH]nc2-c2ccc(F)cc2)CCO1,-5%,0.67
COc1ccc(-n2ncc3c(NCCNC(=O)c4ccccc4Cl)nc(C)nc32)cc1,48%,-4.25

SMILES,% Inhibition,Z score
Cc1cn2c(=O)c(C(=O)N3CCN(CC#N)CC3)cnc2s1,15%,-1.87
COC[C@H]1CCCN1C[C@@H]1OC[C@H](NC(=O)c2cccc(F)c2)[C@H]1O,35%,-3.96
CC1=NN(c2ccccc2)C(=O)[C@H]1C(=O)c1ccc(S(=O)(=O)N2CCOCC2)cc1,0%,0
[O-][S+]1CCN(CCOc2cc(Cl)cc(Cl)c2)CC1,-2%,0.29
CC(=O)NCCOc1ccccc1OCCNC(C)=O,5%,-0.85
CC1(C(N)=O)CCN(C(=O)c2cccc(-c3ccc4ncccc4c3)c2)CC1,-5%,1.04
C[C@H](NS(=O)(=O)N1CCCCC1)c1nc(C2CC2)no1,-15%,2.79
Cc1ccc(O[C@H]2CCN(C(=O)c3c[nH]c4ccccc34)C2)nn1,-7%,0.8
CN(C)C(=O)[C@]12CCS(=O)(=O)N(C)[C@@H]1CCN(Cc1ccc(OC(F)(F)F)cc1)C2,1%,-0.15
CC1COC(c2cccc(Cl)c2)CN1Cc1cncn1C (stereo unspecified),-3%,0.38
C[C@H](C#N)CN(C)C[C@]1(O)CC[C@@H](N(C)C(=O)OC(C)(C)C)CC1,-16%,3.14
Cc1cc(O[C@H]2CCCN(C(=O)c3cccc(-n4cnnn4)c3)C2)nc(C)n1,9%,-1.24
CC(C)Cc1cc(C(=O)N2C[C@H](C(C)C)[C@@H](N)C2)on1,-4%,0.69
CCc1ccc(-c2cc(C)cnc2-n2cnnc2)cc1,-11%,1.09
CCn1c2c(c(=O)n3ncc(C(=O)NCCOC)c13)CN(Cc1ccccc1)CC2,-4%,0.55
CCOC(=O)N1CCC(N2CCC3(CC2)C[C@@H]3C(=O)Nc2ccccc2OC)CC1,-10%,1.46
O=C(COc1ccccc1-n1cnnc1)Nc1nnc[nH]1,33%,-3.75
CN(Cc1ccsc1)C(=O)C1CC(=O)N(C)C1c1cccnc1 (stereo unspecified),3%,-0.29
CCc1nc(CC(=O)N2CCN(C(C)=O)C3(CCOCC3)CC2)cs1,3%,-0.48
CCS(=O)(=O)N1CCCc2cc(C(=O)N3CCCCCC3)ccc21,9%,-1.02
N#CCCn1nc(-c2ccc(Br)cc2)cc1-n1c(C(F)(F)F)nc2ccccc21,-13%,1.64

SMILES,% Inhibition,Z score
O=C(NCc1ccccc1)N1CCN(Cc2ccco2)[C@@H]2CS(=O)(=O)C[C@@H]21,-4%,0.73
Cc1ncsc1CN(C)[C@@H](C(=O)O)c1ccsc1,3%,-0.57
O=C(Nc1ccc(N2C(=O)c3ccccc3C2=O)cc1Cl)c1ccc(N2C(=O)c3ccccc3C2=O)cc1,-38%,4.44
CCc1nc2c(c(=O)[nH]1)C[C@H]1CC[C@@H](C2)N1C(=O)Nc1cccc(C(F)(F)F)c1,-22%,3.07
CCS(=O)(=O)N1CCC[C@H](C(=O)N2CCCc3ccccc32)C1,-13%,1.83
Cc1cc(F)ccc1S(=O)(=O)N1CC[C@H](c2cnccn2)C1,-11%,2
OB(O)[C@H]1CCN(Cc2cc3n(n2)CCC3)C1,0%,0.03
CC1(C)OCC2(CO1)CN(C(=O)NCc1ccccc1)C2,-4%,0.65
Cc1cccc(N2C(=O)C3CC3C2=O)c1 (stereo unspecified),38%,-4.88
O=C(c1cc(-c2ccccc2)on1)N1C2C=CCC1CC2 (stereo unspecified),-13%,2.21
CN(C)[C@H]1CCCN(CCCc2ccco2)CC1,-2%,0.26
CCC[C@H]1CN(Cc2cnc(COC)nc2)C[C@@H]1N(C)C,-8%,1.05
O=C(c1ccc(Cn2cncn2)cc1)N1C[C@@H](C2CC2)C[C@H]1C1CC1,5%,-0.72
C[C@H]1CN(S(=O)(=O)N2CCc3ccccc3C2)CCN1S(=O)(=O)N1CCc2ccccc2C1,-1%,0.11
CC(C)CCC(=O)NCCn1ccccc1=O,-9%,1.78
Cc1ccc(C)c(S(=O)(=O)Nc2ccc(N3CCC[C@H](CN4CCCC4)C3)c(C(=O)O)c2)c1,3%,-0.33
C=CCNC(=O)N1CCc2nc(N3CCCCC3)nc(N3CCCCC3)c2C1,2%,-0.28
CCc1nc(CN2CC[C@]3(O)CCN(C(=O)N4CCCC4)C[C@@H]3C2)cs1,-2%,0.34
Cc1cccc(C(=O)Nc2cc(S(=O)(=O)N3CCOCC3)ccc2N2CCCC2)c1,-2%,0.32
Cc1cnc(CCN(C)Cc2nncn2C)s1,-10%,1.75
